# Reference: ChEMBL document CHEMBL5606460, “ASAP - DENV-2 NS2B-NS3 protease fluorescence single point” (2024)
# The whole screen tested about 2,000 compounds, of which about 110 (5.5%) showed an effect of 50% or more. Some of the results follow.
# Target: Genome polyprotein (dengue virus type 2) (UniProt P29990)
# [1] = Thailand/16681/1984, Concentration 25.0 uM, Number of replicates 1.0
structure (smiles),measurement,setting,value
CCn1ccnc(N(C)[C@@H](CO)Cc2c[nH]c3ccccc23)c1=O,inhibition,"Thailand/16681/1984, Concentration 49.5 uM, Number of replicates 2.0, Standard deviation 1.9142623177196867 %",3.34%
same,inhibition,"Thailand/16681/1984, Concentration 99.01 uM, Number of replicates 2.0, Standard deviation 1.7046808757656864 %",10.7%
same,inhibition,"Thailand/16681/1984, Concentration 198.0 uM, Number of replicates 2.0, Standard deviation 1.1978606391499407 %",23.8%
COc1cc(Cc2ccnc(F)c2)nc(N2CCNCC2)n1,inhibition,"Thailand/16681/1984, Concentration 49.5 uM, Number of replicates 2.0, Standard deviation 1.25288427711158 %",0.381%
same,inhibition,"Thailand/16681/1984, Concentration 99.01 uM, Number of replicates 2.0, Standard deviation 0.507793618082105 %",1.26%
same,inhibition,"Thailand/16681/1984, Concentration 198.0 uM, Number of replicates 2.0, Standard deviation 1.9827356050970315 %",2.2%
Cc1cc(CO)c2cccc(NC(=O)COc3cccc(CN)c3)c2n1,inhibition,"Thailand/16681/1984, Concentration 49.95 uM, Number of replicates 2.0, Standard deviation 1.546456211659181 %",9.18%
same,inhibition,"Thailand/16681/1984, Concentration 99.9 uM, Number of replicates 2.0, Standard deviation 0.8863913825569767 %",7.18%
NCc1cccc(NC(=O)C2CN(C(=O)OCc3ccccc3)C2)c1,inhibition,"Thailand/16681/1984, Concentration 49.5 uM, Number of replicates 2.0, Standard deviation 1.8861323941320305 %",-1.49%
same,inhibition,"Thailand/16681/1984, Concentration 99.01 uM, Number of replicates 2.0, Standard deviation 1.5682827158038206 %",-1.94%
same,inhibition,"Thailand/16681/1984, Concentration 198.0 uM, Number of replicates 2.0, Standard deviation 0.22643655672938587 %",-1.86%
CC(C)(C)c1csc(NC(=O)C2CCN(c3ccc(C=O)cc3)CC2)n1,inhibition,[1],14.5%
Cc1cc(F)cc(Br)c1NC(=O)C1CCN(c2ccc(C=O)cc2)CC1,inhibition,[1],15%
C[C@@H](O)CNC(=O)c1cc(Cl)ccc1NS(=O)(=O)c1ccc(Oc2ccccc2Cl)cc1,inhibition,"Thailand/16681/1984, Concentration 49.5 uM, Number of replicates 2.0, Standard deviation 1.4145601780552486 %",30.4%
same,inhibition,"Thailand/16681/1984, Concentration 99.01 uM, Number of replicates 2.0, Standard deviation 0.06674442365142796 %",75.7%
same,inhibition,"Thailand/16681/1984, Concentration 198.0 uM, Number of replicates 2.0, Standard deviation 0.019135343573522066 %",67%
Cc1cc(CO)c2cccc(Cc3cccc(NC(=O)CNC4CC4)c3)c2n1,inhibition,"Thailand/16681/1984, Concentration 49.95 uM, Number of replicates 2.0, Standard deviation 1.5245757174015988 %",0.182%
same,inhibition,"Thailand/16681/1984, Concentration 99.9 uM, Number of replicates 2.0, Standard deviation 1.8285218036822166 %",7.46%
Cc1cc(CO)c2cccc(Cc3ccccc3C(=O)NC[C@H](C)O)c2n1,inhibition,"Thailand/16681/1984, Concentration 49.95 uM, Number of replicates 2.0, Standard deviation 0.37872955767016525 %",-3.03%
same,inhibition,"Thailand/16681/1984, Concentration 99.9 uM, Number of replicates 2.0, Standard deviation 0.20409716758521712 %",0.577%
CN(Cc1cc([N+](=O)[O-])ccc1Cl)C(=O)C1CCN(c2ccc(C=O)cc2)CC1,inhibition,[1],15.6%
Cc1cc(CO)c2cccc(Cc3ccccc3C(=O)N(c3ncccn3)S(=O)(=O)c3ccc(N)cc3)c2n1,inhibition,"Thailand/16681/1984, Concentration 49.95 uM, Number of replicates 2.0, Standard deviation 1.284948840815395 %",27.7%
same,inhibition,"Thailand/16681/1984, Concentration 99.9 uM, Number of replicates 2.0, Standard deviation 0.4850893215235289 %",47.5%
O=Cc1ccc(N2CCC(C(=O)Nc3ccc(I)cc3)CC2)cc1,inhibition,[1],13.9%
COc1cc(Cl)nc(NC(=O)C2CCN(c3ccc(C=O)cc3)CC2)n1,inhibition,[1],14.3%
O=Cc1ccc(N2CCC(C(=O)Nc3ccc(Cl)nc3Cl)CC2)cc1,inhibition,[1],10.5%
O=Cc1ccc(N2CCC(C(=O)NCCCCN3CCOCC3)CC2)cc1,inhibition,[1],12.1%
O=C1NCc2ccccc2C12CCN(CCn1cc(-c3ccccc3)cn1)CC2,inhibition,"Thailand/16681/1984, Concentration 49.5 uM, Number of replicates 2.0, Standard deviation 0.9617186641961479 %",-0.861%
same,inhibition,"Thailand/16681/1984, Concentration 99.01 uM, Number of replicates 2.0, Standard deviation 1.5619571903387601 %",0.332%
same,inhibition,"Thailand/16681/1984, Concentration 198.0 uM, Number of replicates 2.0, Standard deviation 1.242976058788851 %",2.76%
O=Cc1ccc(N2CCC(C(=O)NCc3cccc([N+](=O)[O-])c3)CC2)cc1,inhibition,[1],11%
O=S(=O)(Nc1ccccc1)c1ccc(Oc2ccccc2Cl)cc1,inhibition,"Thailand/16681/1984, Concentration 49.5 uM, Number of replicates 2.0, Standard deviation 1.8105423163556815 %",1.05%
same,inhibition,"Thailand/16681/1984, Concentration 99.01 uM, Number of replicates 2.0, Standard deviation 1.556829309720985 %",2.93%
same,inhibition,"Thailand/16681/1984, Concentration 198.0 uM, Number of replicates 2.0, Standard deviation 1.335088080503107 %",5.83%
O=Cc1ccc(N2CCC(C(=O)Nc3ccc(-c4ccccn4)cc3)CC2)cc1,inhibition,[1],14.2%
O=C(Nc1cc2c(cc1C1CC1)CNC2)c1cc(F)cc2[nH]ncc12,inhibition,"Thailand/16681/1984, Concentration 99.5 uM, Number of replicates 2.0, Standard deviation 0.34945873996674337 %",63.1%
same,inhibition,"Thailand/16681/1984, Concentration 295.6 uM, Number of replicates 2.0, Standard deviation 0.6526301250248825 %",85.2%
Cc1ccc(NC(=O)C2CCN(c3ccc(C=O)cc3)CC2)cc1I,inhibition,[1],9.87%
Cn1cc(NC(=O)c2ccccc2C(F)(F)F)c(-c2ccc3oc(=O)[nH]c3c2)n1,inhibition,"Thailand/16681/1984, Concentration 49.5 uM, Number of replicates 2.0, Standard deviation 0.10106409663166684 %",-3.34%
same,inhibition,"Thailand/16681/1984, Concentration 99.01 uM, Number of replicates 2.0, Standard deviation 1.4404067329045545 %",-2.03%
same,inhibition,"Thailand/16681/1984, Concentration 198.0 uM, Number of replicates 2.0, Standard deviation 0.4542972554699548 %",-1.2%
c1ccc2oc(C3CCN(Cc4c[nH]c5ccccc45)CC3)nc2c1,inhibition,"Thailand/16681/1984, Concentration 49.5 uM, Number of replicates 2.0, Standard deviation 1.4155991189444663 %",1.29%
same,inhibition,"Thailand/16681/1984, Concentration 99.01 uM, Number of replicates 2.0, Standard deviation 0.9962387138309198 %",1.83%
same,inhibition,"Thailand/16681/1984, Concentration 198.0 uM, Number of replicates 2.0, Standard deviation 0.9574776059546029 %",3.59%
